The structures appear in SMILES notation. The list shows a part of the results.

This assay deals with T1, C. trachomatis L2/434/Bu expressing GFP (CTL2-GFP).
T1 construct: L2/434/Bu GFP intracellular growth in HeLa cells
Also on record: species or system HeLa; C. trachomatis total inclusion area by high-content imaging, normalised to DMSO. Particulars: total inclusion area; 28.5 h, 10 µM; inhibitor. An outline of the steps: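 High-content imaging followed the bulk GFP/resorufin measurement: fixed, Hoechst-stained cells were scored for GFP inclusions and host nuclei per well. Total inclusion area and count served as growth proxies, nuclei number as the viability proxy. MIC calculation matched the bulk assay.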
In the case of `Cc1ccccc1C(=O)NCC(=O)Nc1ccc(Cl)nc1` [CBK091335], the “% of control remaining” value is listed as 100.677.

As for `c1ccc2c(CNCc3ccc4c(c3)OCO4)c[nH]c2c1` [CBK262159], the “% of control remaining” value is 84.9179.

As to `O=C(CCc1ccccc1)N/N=C/c1cc2c(cc1[N+](=O)[O-])OCO2` [CBK261221], the “% of control remaining” value is on record as 82.0672.

Consider `Cc1cc(C)n2c(SCC(=O)c3ccccc3)nnc2n1` [CBK265378], for which the “% of control remaining” value stood at 95.6757.

As for `Cc1nc(CN2CCN(C(=O)C3C4CCCCC43)CC2)cs1` (centres unmarked) [CBK281607], the “% of control remaining” value is 107.423.

For `COc1ccc(C(=O)N/C(=C/c2ccc([N+](=O)[O-])cc2)c2nc3ccc(C(F)(F)F)cc3[nH]2)cc1OC` [CBK263199], the “% of control remaining” value was found to be 76.0318.

With `C=CCO[C@@H]1C[C@H]2C(=O)N3CCN(C(=O)NC4CCCCC4)C[C@H]3C(=O)N2C1` [CBK289619], the “% of control remaining” value was found to be 109.048.

In the case of `N#Cc1cccc(C(=O)N2CCCN(Cc3ccc(Cl)cc3)CC2)c1` [CBK305323], the “% of control remaining” value is 70.7047.

Regarding `Cc1ccc(C(O)CN2CCC(O)(c3ccccc3F)CC2)cc1` (centres unmarked) [CBK283310], the “% of control remaining” value is on record as 100.004.

Turning to `O=C(CSCc1c(F)cccc1Cl)NCc1ccccc1Cl` [CBK269155], the “% of control remaining” value worked out at 100.937.

For the compound `Cc1ccc(CC(=O)N2CCCC2c2n[nH]cc2-c2ccncc2)cc1` (centres unmarked) [CBK283424], the “% of control remaining” value is reported as 51.0564.

For `Cc1cc(O)cc(=O)n1Cc1ccccn1` [CBK291159], the “% of control remaining” value is 96.7571.

In the case of `CCCC(=O)N1CCCC([C@@H]2C[C@H](C(F)F)n3nc(C)cc3N2)C1` (some centres unmarked) [CBK284721], the “% of control remaining” value was 107.808.

`Cn1ccnc1Sc1ncccc1C(F)(F)F` [CBK093759]: the “% of control remaining” value was found to be 99.1655.

For `CC1(C)[C@H](Cc2cc(CN3CCOCC3)on2)C[C@@H]1NC(=O)C1CC1` [CBK289246], the “% of control remaining” value is reported as 116.357.

Take `N#CCCCN1CCC2(CC1)OCCc1c2[nH]c2ccc(Br)cc12` [CBK040105]: the “% of control remaining” value amounted to 74.921.

Regarding `COc1ccc(-c2nn(CN3CCC(C(N)=O)CC3)c(=S)n2-c2ccccc2)cc1OC` [CBK264299], the “% of control remaining” value amounted to 111.165.

Regarding `IC1COC(c2ccccc2)OC1` (centres unmarked) [CBK021109], the “% of control remaining” value is on record as 67.5829.

Take `CCOC(=O)N1CCC(NS(=O)(=O)c2ccc(F)cc2)CC1` [CBK045455]: the “% of control remaining” value was determined as 122.988.

For `O=C(Cc1ccc(F)cc1)N1CCC(c2cccc(Cc3ccccc3F)n2)CC1` [CBK286213], the “% of control remaining” value came to 75.0755.

Regarding `Cc1cccc(N2C(=O)c3ccc(C(=O)c4ccc5c(c4)C(=O)N(c4cccc(C)n4)C5=O)cc3C2=O)n1` [CBK263069], the “% of control remaining” value is reported as 95.889.

Turning to `Cc1ccc(S(=O)(=O)NC[C@H]2C[C@@H]3CC[N@]2C[C@@H]3CN2CCOCC2)cc1` [CBK288758], the “% of control remaining” value is on record as 99.5233.

On to `CC(C)CC(=O)N1CCC(c2nnc3n2CCCCC3)CC1` [CBK284629], for which the “% of control remaining” value is listed as 99.1939.

For `COc1cncc(C(NC(=O)c2ccn3nnnc3c2)[C@H]2C[C@@H](O)C2)c1` (some centres unmarked) [CBK306686], the “% of control remaining” value is given as 38.0036.

Consider `Cc1nn(C)cc1-c1cc(C(=O)Nc2ccccc2C2CC2)on1` [CBK281412], for which the “% of control remaining” value was 107.972.

`O=C(Nc1cccc2[nH]ccc12)c1ccoc1` [CBK159659]: the “% of control remaining” value stood at 104.136.

Consider `O=C(Cc1ccc2c(c1)CCCO2)Nc1c(OCCn2cccn2)ccc2ccccc12` [CBK285679], for which the “% of control remaining” value amounted to 102.048.

Consider `CS(=O)(=O)c1ccc(Cn2ccnc(N3CCN(C(=O)Cc4cccs4)CC3)c2=O)cc1` [CBK153773], for which the “% of control remaining” value was 95.0263.

Turning to `CC(C)C1OC(NCc2ccc(Cl)cc2)=NC1=O` (centres unmarked) [CBK070352], the “% of control remaining” value was determined as 96.2518.

Regarding `Cc1nc(N)nc(NCCC2CCCOC2)c1Cl` (centres unmarked) [CBK307353], the “% of control remaining” value is recorded as 31.5607.

Regarding `O=[N+]([O-])c1cccc(C(Nc2cccnc2)c2cc(Cl)c3cccnc3c2O)c1` (centres unmarked) [CBK268629], the “% of control remaining” value was found to be 36.847.

Take `CC(=O)N1CCc2c(sc(NC(=O)c3ccc(C)cc3)c2C#N)C1` [CBK304411]: the “% of control remaining” value is on record as 5.672.

In the case of `CSc1ccccc1NC(=O)Cn1c(-c2nonc2N)nc2ccccc21` [CBK266919], the “% of control remaining” value was found to be 58.1029.

Turning to `CCNC(=O)N1CC2(CCN(Cc3csc(C)n3)CC2)c2ccccc21` [CBK126712], the “% of control remaining” value was determined as 103.541.

Consider `CCCCC(=O)N1CCC2(CC1)CC(=O)c1ccc(OCc3ccccc3)c(C)c1O2` [CBK156493], for which the “% of control remaining” value turned out to be 72.1539.

Take `COc1ccccc1N1CCn2c1nc1c2c(=O)n(CCN2CCOCC2)c(=O)n1C` [CBK269265]: the “% of control remaining” value stood at 139.569.

In the case of `Cc1ccc(/C=C/C(=O)N2CCC3(CC2)CC(=O)c2cc(Cl)ccc2O3)cc1` [CBK156439], the “% of control remaining” value turned out to be 105.579.

`O=C1CC[C@H](NC(=O)c2cccs2)C(c2cccnc2)N1` (some centres unmarked) [CBK282901]: the “% of control remaining” value turned out to be 98.7717.

For the compound `Cc1nnc(CCNC(=O)c2cccc(C#N)c2)n1C` [CBK306017], the “% of control remaining” value came out at 73.0778.

Regarding `Cc1nc(N)sc1-c1nnc(SC/C=C/c2ccccc2)n1C` [CBK269383], the “% of control remaining” value was found to be 105.925.

On to `Cn1cc(C(=O)OCc2cccc(S(=O)(=O)N3CCOCC3)c2)cn1` [CBK305721], for which the “% of control remaining” value was found to be 60.2021.

For the origin of these results see paper PMC12040169 (PLOS Biology, 2025).
